Source: article PMC7819943, “Rice protein-binding microarrays: a tool to detect cis-acting elements near promoter regions in rice”
The other results are listed elsewhere or left out.

What follows are sequences tested against T1, OsWOX13 (Oryza sativa, UniProt Q5QMM3 1-267) (assay: protein-binding microarray (RPBM); PBS, 2% BSA, 51.3 ng/ul salmon testes DNA, 50 uM zinc acetate, 200 nM TF, 25 C, 1 h; high values mean tight binding). Settings: protein: recombinant; tags: N-terminal polyhistidine and DsRed monomer fusion (pET32a); label: CyDye5-dUTP incorporated in the synthesized complementary strand; 3' TTTTT single-stranded linker to array surface; dsDNA, one strand shown.
T1 sequence: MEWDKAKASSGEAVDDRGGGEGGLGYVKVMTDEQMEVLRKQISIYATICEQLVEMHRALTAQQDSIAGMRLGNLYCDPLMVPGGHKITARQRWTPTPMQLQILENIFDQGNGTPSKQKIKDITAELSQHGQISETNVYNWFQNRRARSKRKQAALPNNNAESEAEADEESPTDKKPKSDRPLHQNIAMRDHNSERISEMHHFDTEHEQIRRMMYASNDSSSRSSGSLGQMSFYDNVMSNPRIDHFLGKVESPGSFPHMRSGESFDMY
Procedure, shortened: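 Binding signal is reported as fluorescence intensity per feature (arbitrary units) from an Axon 4000B scanner. Incubation used 200 nM of each Ni–NTA-purified, N-terminally polyhistidine- and DsRed-fused transcription factor from E. coli BL21-CodonPlus on a double-stranded custom Agilent array for 1 h at 25 °C, with 50 µM zinc acetate in the buffer, followed by washing.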

Sequence | binding signal
CTGTAGATTGAGCCTAAAACTATAAGTAACATAAGTCAAACGGAGTCACCTAGTGCAG | 8590 fluorescence intensity (a.u.)
GTTGGCCTGGATTGATGGCGAGGCGAGCGCGGATGGACGTCGGAGTCACCTAGTGCAG | 3400 fluorescence intensity (a.u.)
GTTCGTTTTCCGTGCACTAATTAAACAGTTACGGCGACTTCGGAGTCACCTAGTGCAG | 3430 fluorescence intensity (a.u.)
GTGTGTGATGGGTTAATCGATGTGCTATGTTATTGGTTTCCGGAGTCACCTAGTGCAG | 5310 fluorescence intensity (a.u.)
TAACTCATGATTAATAAATAAGCCTGTAAGTTACAGAACTCGGAGTCACCTAGTGCAG | 7260 fluorescence intensity (a.u.)
TTAACCAATCATAAACTCTCCACGTTCACTTCTACCTACTCGGAGTCACCTAGTGCAG | 5880 fluorescence intensity (a.u.)
GTTAAACTTTGATGAAACCACTTGAAAATTTTCAAACATGCGGAGTCACCTAGTGCAG | 3540 fluorescence intensity (a.u.)
AGAAGATTAATAAAATGTGAGCATTATTAGCATTAGTATACGGAGTCACCTAGTGCAG | 6070 fluorescence intensity (a.u.)
TGTTTAAAACGTCAATTAAAATAAAATCAGAGATAGCAGTCGGAGTCACCTAGTGCAG | 14300 fluorescence intensity (a.u.)
CAGTTTGACTGTTGACCCGTAGTTTTGTCACATGATGGATCGGAGTCACCTAGTGCAG | 7240 fluorescence intensity (a.u.)
ACAATTATCACCAAATTAGGGGTGAAAATGATCGAAAACGCGGAGTCACCTAGTGCAG | 12600 fluorescence intensity (a.u.)
ACGATAATTGATATGGATAATTGGATTGGATTATATGCAGCGGAGTCACCTAGTGCAG | 41000 fluorescence intensity (a.u.)
AGGCTGATTTTGATTAGAAAGGCTTAGATCGGACAATAGGCGGAGTCACCTAGTGCAG | 39700 fluorescence intensity (a.u.)
GTGGCAATCAAGCTCAAGATAGAAGAAAAGGAAAATAAGTCGGAGTCACCTAGTGCAG | 4350 fluorescence intensity (a.u.)
ATTGATTTAATGAAAATAATTTAATATTATAAATATTACTCGGAGTCACCTAGTGCAG | 35700 fluorescence intensity (a.u.)
TTCTTAATTTCTTCTTTCAGGTCATGTGCATCCATATTGTCGGAGTCACCTAGTGCAG | 9620 fluorescence intensity (a.u.)
CGAATTAATTAGGTTTAATAAATTCGTCTCGCAATTTACACGGAGTCACCTAGTGCAG | 5290 fluorescence intensity (a.u.)
TTAGATTTGATGCAGGTACTCGTATTTATGGTTAAATTTTCGGAGTCACCTAGTGCAG | 7530 fluorescence intensity (a.u.)
TTTCTTAATTTGATAGTACTAAATTTCTAGTTAGTATCTCCGGAGTCACCTAGTGCAG | 21200 fluorescence intensity (a.u.)
TGTAATTTTACACCGTTCATACCCAACGTTTGATTGTTCGCGGAGTCACCTAGTGCAG | 11100 fluorescence intensity (a.u.)
ACTGGAATAGATTAGCACAAAGGCTGAGCGAATGTTTTGTCGGAGTCACCTAGTGCAG | 14600 fluorescence intensity (a.u.)

Sequence | binding signal
ATAAAATTGATTGCTCGAGTTATAAAATTCGACTAAATTTCGGAGTCACCTAGTGCAG | 32800 fluorescence intensity (a.u.)
AGTTGACAGGAGGAGGTGAGAGCTTAGCCAACAAGCCCCACGGAGTCACCTAGTGCAG | 7110 fluorescence intensity (a.u.)
AATTTTCCCATAAATTAATGTAAATTGCACATATGCACCCCGGAGTCACCTAGTGCAG | 7520 fluorescence intensity (a.u.)
ACACTAATTTGTGACAAGAGCGTGGAAGTCAAGAGCGATGCGGAGTCACCTAGTGCAG | 23400 fluorescence intensity (a.u.)
TAAATTTACATTAATAGAACCAGAAGCAATCCAATTCTGTCGGAGTCACCTAGTGCAG | 14400 fluorescence intensity (a.u.)
TAATGGAAATTGGAAATGATTTCCCACCCATCAAAAGACACGGAGTCACCTAGTGCAG | 11900 fluorescence intensity (a.u.)
GACAAATTTTGACCGAGAAATCTGTCGCCAGATGCCTAGCCGGAGTCACCTAGTGCAG | 3900 fluorescence intensity (a.u.)
CCGGTAGATTGGATATTACAGCAGCCCAACTCCGACCAACCGGAGTCACCTAGTGCAG | 35000 fluorescence intensity (a.u.)
TTGATATAATTAATTATGCTTGAATTAAATAATTGGTACTCGGAGTCACCTAGTGCAG | 50200 fluorescence intensity (a.u.)
CCACAGTAATTAATTTCTTTCAAATATTCAAACCCATACTCGGAGTCACCTAGTGCAG | 29100 fluorescence intensity (a.u.)
CAAGCTAATCATCCCCTGAAATTATGGCATCTTCTTGGTTCGGAGTCACCTAGTGCAG | 13000 fluorescence intensity (a.u.)
TTTGAACTGATAATCATTATGACAGTTTCTTTCATCGTGCCGGAGTCACCTAGTGCAG | 7890 fluorescence intensity (a.u.)
AACATAACATGTAATTATATCATAGTCAAATTTATTATTTCGGAGTCACCTAGTGCAG | 4600 fluorescence intensity (a.u.)
ATTAATTATGGTGAATAAATTTGCAGGGACGGGTGTGTACCGGAGTCACCTAGTGCAG | 21100 fluorescence intensity (a.u.)
CGACCCAATCACCCAACACGAACAGTGGTCCCTCCCTCACCGGAGTCACCTAGTGCAG | 3860 fluorescence intensity (a.u.)
ATGTTTAGTGTCAATTTAATCACTAAATTTGGATATTCATCGGAGTCACCTAGTGCAG | 11100 fluorescence intensity (a.u.)
TTTGCAGAAATAATTTAATTACGAAGCAAACTCTCCTTGTCGGAGTCACCTAGTGCAG | 6740 fluorescence intensity (a.u.)
TTCATGATATCAATTTATGAGCATCAAAAGATTACCATGCCGGAGTCACCTAGTGCAG | 6980 fluorescence intensity (a.u.)
GCAAATCAACTAATCAAATTCCCTCCGGAGGAGGAGGATACGGAGTCACCTAGTGCAG | 4010 fluorescence intensity (a.u.)
ATCGAGATTAATCGAAAACTATTTTCTAGCTAGACTGAAACGGAGTCACCTAGTGCAG | 4730 fluorescence intensity (a.u.)
CCGTCTTTGATGATGATGACGAGGACGACTGTGGAATGCCCGGAGTCACCTAGTGCAG | 6330 fluorescence intensity (a.u.)
